Laboratory results as given in article PMC8060278 (2021).

T1: recombinant ligand-binding domain (LBD) of GPIbα (residues His1-Arg290) (human, UniProt P07359 17-306, biotin on the BioTag (…))
T1 chain: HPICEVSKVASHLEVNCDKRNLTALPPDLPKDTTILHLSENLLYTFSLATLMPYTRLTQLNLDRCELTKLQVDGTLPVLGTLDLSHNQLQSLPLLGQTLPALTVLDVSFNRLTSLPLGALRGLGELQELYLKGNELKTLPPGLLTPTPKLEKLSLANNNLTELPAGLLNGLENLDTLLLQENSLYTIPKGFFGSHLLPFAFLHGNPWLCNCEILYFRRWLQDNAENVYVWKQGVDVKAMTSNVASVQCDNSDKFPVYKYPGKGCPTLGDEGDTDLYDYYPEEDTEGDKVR

B1: NAIM-A1 (VWF […]) (domain or fragment)
chain: not shown
B2: A1-CAIM (recombinant VWF fragment […]) (domain or fragment)
chain: not shown
B3: tAIM-A1 (VWF […]) (domain or fragment)
chain: not shown

Experiments:
[1] = molecular target: T1, recombinant ligand-binding domain (LBD) …; assay: BLI; steady-state apparent
[2] = molecular target: T1, recombinant ligand-binding domain (LBD) …; assay: BLI; lower-affinity state (KD), heterogeneous-ligand fit
[3] = molecular target: T1, recombinant ligand-binding domain (LBD) …; assay: BLI; higher-affinity state (KD'), heterogeneous-ligand fit
[4] = molecular target: T1, recombinant ligand-binding domain (LBD) …; assay: BLI; KD,app steady state
[5] = molecular target: T1, recombinant ligand-binding domain (LBD) …; assay: BLI; KD (first phase of kinetic fit)
[6] = molecular target: T1, recombinant ligand-binding domain (LBD) …; assay: BLI; KD' (second site/phase of heterogeneous kinetic fit)

Binder	Kd [1] [nM]	Kd [2] [nM]	Kd [3] [nM]	Kd [4] [nM]	Kd [5] [nM]	Kd [6] [nM]
B1	806	431	4	–	–	–
B2	175	408	11.2	–	–	–
B3	–	–	–	171	408	4.2
